# From the supplement of paper PMC11417369
# ± gives the standard deviation of the averaged measurements. This is one part of the list.
# System: PfAP2-EXP AP2 domain (GST-tagged)
# Test: gcPBM binding intensity (ln(normalized median fluorescence intensity)); higher = stronger DNA binding
# In short: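 For binding intensity, the highest Masliner-normalised natural-log median intensity across replicate spots of either probe orientation was taken. Protein bound to the array was stained with Alexa488 anti-GST antibody and scanned at 488 nm. The protein, GST-tagged P. falciparum DNA-binding domains from E. coli at about 25 μg on average, had been applied for 1 h to an Agilent 4 × 180k array of primer-extended double-stranded 36-bp intergenic genomic probes and negative controls.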
row,Sequence,gcPBM binding intensity (ln)
1,TATATCATCATGTATGTACACACATACATATATTAT [CACACA_site8387],8.51 ± 0.35
2,CAAAAACATACCTACACACACAATATGTATATATAA [CACACA_site3514],8.37 ± 0.48
3,TTGTTATGTTTTATTTGTACGTAGGTTTCTATCAAA [XGTACX_site7636],8.87 ± 0.5
4,AAAATATAGTAACACATACACACATATATATTTATA [CACACA_site2504],8.5 ± 0.49
5,AAATTGAAATATTCCTGTACACATTTTGAAAACTTA [XGTACX_site6101],8.44 ± 0.38
6,TATTAAACTAAATGTAGTACATACACAAAAGAAACC [XGTACX_site606],9.29 ± 0.51
7,TGTTTGAATATAATCACACATTTATATAAAAAGTTA [CACACA_site5237],8.15 ± 0.46
8,TCTTTTTGCATGTGTGTGCGCACAAAATACACAAAA [GTGCAC_site9718],8.96 ± 0.12
9,TTATGAAAATATTTTTTTCGTTTGATGTATATGTTT [CACACA_negctrl_site1556],8.29 ± 0.49
10,AAAAAATATAAATATGTAAAAAGAGAAAAAAAAAAG [GTGCAC_negctrl_site9],8.71 ± 0.53
11,TGAAAATGGGAACCGTGTACAGGGCAGTTATAGGGG [XGTACX_site2950],9.4 ± 0.59
12,TATAAACATAAAACCAGTACATATATATTTTTCTTC [XGTACX_site212],8.29 ± 0.28
13,ATATTTAATTCATCATGTACACAAATAAGAAACAAA [XGTACX_site8076],8.96 ± 0.23
14,ATCATTTTGTGTTCAAGTACATAATGTTTTACACAA [XGTACX_site3565],8.61 ± 0.4
15,TACCAAAAAAAAAAAATAATAATAAAAAAAAAAAAA [TGCATGCA_negctrl_site11],8.18 ± 0.22
16,AACGAAGCATAAAATGTTATGTATATATATAAATAT [TGCATGCA_negctrl_site304],8.49 ± 0.43
17,GCAAAACATTTTTAAAATAAAAATAATAAAATATAT [CACACA_negctrl_site219],8.34 ± 0.39
18,ATGTGGAAATAGAGCACACATATATATAATATATAT [CACACA_site884],8.74 ± 0.36
19,CATACATTATAAGATACATGCATATATCTGAACATA [TGCATGCA_site797],8.8 ± 0.23
20,ATATATTATATAAAAAGTACTAAAATAGTAAGATGT [XGTACX_site7493],8.97 ± 0.45
21,TATTCATTAAACCATACACACATAATTTTTTTATAA [CACACA_site4618],8.24 ± 0.36
22,GTGTGCCAAATTAGCACACACATATATACATGAATT [CACACA_site7346],8.62 ± 0.28

row,Sequence,gcPBM binding intensity (ln)
1,AATGATTTTAAATGAACATAATTTATATTCATAACA [GTGCAC_negctrl_site256],8.04 ± 0.42
2,TGCAAAAAAAAAAAAAAAAAATATATGGAAATATAT [GTGCAC_negctrl_site257],8.54 ± 0.19
3,TTTTCATACACTGCTAGTATATACTACCACTGACAT [GTGCAC_negctrl_site514],9.1 ± 0.49
4,AAACATATATTAAGCACACACAAACAAAAAAACAAA [CACACA_site2549],8.87 ± 0.46
5,ACACATAATATAAAGGTGCTATATTGTATTCATTTT [GTGCAC_site9457],8.52 ± 0.33
6,ACGTATCAATTTATTGGTACACATAAATATATATAT [XGTACX_site5556],9.355 ± 0.064
7,TGATTCATTGATAAGGGTACATTTATAATTATGATA [XGTACX_site6319],8.31 ± 0.32
8,ACATTGAACAAAATAGTAAGCACATATATATATATA [GTGCAC_negctrl_site679],10 ± 0.39
9,AAATTGAGACAACAGGTGCATATAAATATACAGTGT [GTGCAC_site9634],9.2 ± 0.028
10,AAAATGAATAAAAATACACACATATATGTTATTCTC [CACACA_site2671],8.3 ± 0.35
11,AATAATATATATATTACACACTAATTGTATTATATA [CACACA_site448],8.27 ± 0.31
12,CCAACATGCAGACGCACACACAAAAAAAGCATGCAT [CACACA_site74],9.36 ± 0.23
13,ATTTATTTATTTAGCTGTACATTTATACAGAACGAT [XGTACX_site3336],8.55 ± 0.41
14,TTAATACCCGGACACACACACACAAAATAAAATACA [CACACA_site4296],8.69 ± 0.49
15,TAACAATATCTAGATACACACACATATCTCTCAATC [CACACA_site8122],8.51 ± 0.6
16,AATTTTTGTTACAAGATGCACTTAATTTTTCTAAAT,8.46 ± 0.29
17,AATAAAAATTCAAGTTGTACTTTTTTAAAAATACAA [XGTACX_site3949],8.12 ± 0.24
18,AAAAAATCACAACACACACACACACTAATAAAAAAA [CACACA_site8410],8.65 ± 0.46
19,TAAATATTATTATATACATGCACTTACAACTTTTTT [TGCATGCA_site877],8.7 ± 0.24
20,AAATCACATAAAACATAATCAAATGAAATATAATCA [CACACA_negctrl_site123],8.45 ± 0.34
21,ACTGTAAATTTATTCGGTACACATATAAATAATATT [XGTACX_site7346],8.59 ± 0.3
22,ATTATTTTTAAAAATTGTACAGTATAAGAGAGAAAT [XGTACX_site7094],8.73 ± 0.11

row,Sequence,gcPBM binding intensity (ln)
1,AATAAAAAAATATATTGTACTAATAATTATATGTTT [XGTACX_site2246],8.34 ± 0.32
2,TATTGTAAAAAGATTACACACGTTCTATATACTTTT [CACACA_site5379],8.59 ± 0.54
3,TTAATGGCAAAATAGGCACACACACCGATACATATA [CACACA_site8263],8.86 ± 0.42
4,ATAATATTTAGGTGTGCACACAAACATACATATATA [CACACA_site9120],8.99 ± 0.29
5,ACAGTAGCCAGTAACTGTACGGATTGTAGAGATCAG [XGTACX_site4873],8.69 ± 0.39
6,ATGATAATTTTTTTCTCACACACAAATATTTTAATC [CACACA_site3665],8.31 ± 0.35
7,AAAGATTCTTTGAATTGTACAAATATATTTACTCAC [XGTACX_site8772],8.68 ± 0.46
8,CAATAATATATATATTGTACATTTTTTTTTATTATT [XGTACX_site3149],8.62 ± 0.43
9,TATATTATTTTCTTTTGTACACATATATATCAGTGT [XGTACX_site664],8.74 ± 0.47
10,ATGTTCCATTTTACTTGTACTAATTTTTTCCTATCT [XGTACX_site6474],9.1 ± 0.38
11,ATAATAATAAAGTATGCATGCATATAATATAATATA [TGCATGCA_site796],9.87 ± 0.22
12,TTTTTATTGCAATACTTATATTTTTTTATGATTAAA [TGCATGCA_negctrl_site147],8.63 ± 0.26
13,TTCTCACTTTTAAATTTTATTCAAAAATAAGGAAAG [XGTACX_negctrl_site444],8.17 ± 0.37
14,ATATATATATATAAATGTACATATGTATAATTCATA [XGTACX_site6679],9.79 ± 0.2
15,ATTTCGTTCTTTTATGCACACTCAACATATAAATTA [CACACA_site8322],9.24 ± 0.38
16,GAGAGTAAAACAAATATACACACCATAAAGTTATAA [CACACA_site1686],8.62 ± 0.52
17,TACATAAACATTTATACACACATTATGTATACATAT [CACACA_site405],8.6 ± 0.46
18,GGATTTTTCGAATCATGTACATATTTAATTAAAAAA [XGTACX_site7939],8.46 ± 0.41
19,TATTTTTCCATATGCACACACACCGTATCTAGAATA [CACACA_site6654],8.95 ± 0.33
20,AACTTTGGCAAACACACACACACACCCACACCCACA [CACACA_site588],8.61 ± 0.43
21,TAGAATGTATGTAGTGCACACCTCTATAATATATTA [CACACA_site1873],9.27 ± 0.22
22,AAAATATATTCAACTTGTACATATATATATATATAT [XGTACX_site7629],10.3 ± 0.13

row,Sequence,gcPBM binding intensity (ln)
1,TTTTTTTTTTGCACGTGTACATAAAAATATATATAT [XGTACX_site3116],9.26 ± 0.13
2,TTTTTGTAATGACACACACACAAACAGAAAAAATAA [CACACA_site7062],8.81 ± 0.48
3,TTATATATTTTGATTGCACACAGAATTTAAATCATG [CACACA_site8735],8.44 ± 0.31
4,ATAAAATAAAGGAAAAATATTAAGTTTTAAGAAAAT [CACACA_negctrl_site1066],8.51 ± 0.36
5,ATATTTAAGATTTAATCACACACATATATATTATAT [CACACA_site8946],8.38 ± 0.37
6,ATATATGTGCTAAAATGTACATAGTATAATATATTT [XGTACX_site1949],8.73 ± 0.34
7,TTTAATCATTTTAGCTTACACACAAAATTTTGTTAT [CACACA_site2938],9.16 ± 0.69
8,AATATTTATATTTACACACACATAATACCTATATGT [CACACA_site6167],8.47 ± 0.35
9,TAGATACATAAAAGTGGTACATATATATATATATAT [XGTACX_site6263],10.1 ± 0.52
10,TGGAAATTCTCAGGAGTGCATATTTGCAGTTTACGT [GTGCAC_site9768],8.66 ± 0.27
11,TTTGTTGACGGACACACACACATACAGATATATATA [CACACA_site5292],8.84 ± 0.39
12,ATGGTTAAAAAAAGCATACACACTATCCTCTTTGCT [CACACA_site2552],8.53 ± 0.44
13,ATAATAAATTATTATGTACACACATAATAGTATATA [CACACA_site8538],8.45 ± 0.33
14,CCGTTGAACATATATGCACACACATAAAATAAAAAA [CACACA_site8761],8.66 ± 0.42
15,ATATTTTTTTTTTTTTGTACATATATCATTATATAT [XGTACX_site866],8.76 ± 0.38
16,TGGTTACTGTCATTAGTTATTTCTTGTTGACAATTA [CACACA_negctrl_site416],8.57 ± 0.47
17,TTTTTGTCTGCATACGCACACACGTGTACCATCTTA [CACACA_site1173],9.47 ± 0.41
18,GGTATAAAGAAATTTTGTACATATTTCTCCCTTTAA [XGTACX_site1874],8.47 ± 0.37
19,AAAAAAAAAAAACACACACACACACTAATATATAAA [CACACA_site8302],8.47 ± 0.56
20,CGCATACACGGACACACACACACATATATATATATA [CACACA_site4520],10.1 ± 0.34
21,TAATATATAAGAAACAAAAAAAAATAAAAATATATA [TGCATGCA_negctrl_site153],8.6 ± 0.42
22,TAAAATAATTCGTAACGTACATATGTAATATAATAT [XGTACX_site6126],8.99 ± 0.47
